B1: LINE1-mini (parent)
chain: GGCAGAGCUCAACACAGCGUGGCAAAGUGGCUGUGGCUAGACUGCC

Read counts are not given, so values of variants with three or more changes are uncertain.

The variants in this data set derive from B1. Put plainly: self-cleavage, relative activity (ratio to wild type); higher = more cleavage; in vitro, sequencing; the parent is a self-cleaving ribozyme.
Consider GGCAGACCGCAACACAGCGUGACAAAGUGGCUGUGGCUAGUCUGCC [G7C U9G G22A A41U], for which the self-cleavage came out at 0.01.
Consider GGCAGAUCUCAACCCAGCGUGGUAAAGUCGCUGUGGAUAGACUGCC [G7U A14C C23U G29C C37A], for which the self-cleavage was 0.01.
In the case of GGCAGACCACAACACAGCGUGCCAACGUGGCUGUGGCUAGACUGCC [G7C U9A G22C A26C], the self-cleavage amounted to 0.08.
As for GGCAGAUCUCAACACGGCGUGGCAAAGUGGCUGCGGCUAGGCUGCC [G7U A16G U34C A41G], the self-cleavage is 0.05.
As for GGCAGACCCCAACACAGCUUGGCAAAGUGUCUUUGGCUAGACUGCC [G7C U9C G19U G30U G33U], the figure is 0.02; as for GGCAGAUCUCCAAACAUCGUGGCAAAGUGGCUGUGGCUUGACUGCC [G7U A11C C13A G17U A39U], 0.01; as for GGCAGACCCCAACACAGCGUGGGAAAGUGGCUGUGGUUAGCCUGCC [G7C U9C C23G C37U A41C], 0.03.
For the variant GGCAGAUCUCAACCCAGCGUGUAGAAAUGGCUGUGGCUAGACUGCC [G7U A14C G22U C23A A24G G27A], the self-cleavage stood at 0.04.
GGCAGACCUCAACACAGCGGGGCAAAGUGGCUGUGGCUUGACUGCC [G7C U20G A39U]: the self-cleavage came out at 0.04.
To GGCAGAUCUCACCACCGCGUGGCAAAUUGGCUGAGGCUAGACUGCC [G7U A12C A16C G27U U34A] belongs 0.16; to GGCAGACCGCAACAACGCGUGUCAAAGUGGCUGUGGCCAGACUGCU [G7C U9G C15A A16C G22U U38C C46U], 0.01; to GGCAGACCUCAACACAGCGCGGCAAAGUGGCUGUAGGUAGACUGCC [G7C U20C G35A C37G], 0.02.
For GGCAGACCUCAACACAGCGGGGCACAGUGGAUGUGGCUAGACUGCC [G7C U20G A25C C31A], the self-cleavage came out at 0.04.
Take GGCAGAUCUCAUCACAGCUUGGCAAAGUGGCUGUGGCAAGUCUGCC [G7U A12U G19U U38A A41U]: the self-cleavage was found to be 0.05.
As for GGCAGAUCUCAACUCAGGAUGGCAAAGUGGCUGUGGCUAGACUGCC [G7U A14U C18G G19A], the self-cleavage stood at 0.05.
As for GGCAGACCUCAACACAGCGUGGCAAAGUGGCUGCGGCUAGACUGAC [G7C U34C C45A], the figure is 0.04.
For GGCAGAUCUCACCACAGGGUGGCAAAGUGGGUGUGGCUAGACUGCC [G7U A12C C18G C31G], the self-cleavage came to 0.
Regarding GGCAGAUCUCAACACAGCGUGGCAUAGUGGCUGUGACUAGACUGCC [G7U A25U G36A], the self-cleavage is 0.05.
To GGCAGAUCUCAACACCGCGUGGCAAAGUGGCUGUGGCUAGAUAGCC [G7U A16C C42U U43A] belongs 0.02; to GGCAGACCUCAACACAGCGGGGCAAAGUGGCUGUGGCUAGUCUGCC [G7C U20G A41U], 0.16; to GGCAGACCUCAACACAGCGAGGCAAAGUGGCUGUGGCUAGACUGCU [G7C U20A C46U], 0.06.
To GGCAGAUCUCCACCCAGCGUGGCAUAGUGGUCGUGGUUAAACUGCC [G7U A11C A14C A25U C31U U32C C37U G40A] belongs 0; to GGCAGAUCUCAACACAGCGUGGCAUAAUAGCUGUGGCUAGCCUGCC [G7U A25U G27A G29A A41C], 0.05; to GGCAGACCUCAACACAGCGUGGCAAAGUGGCUGGGCUUAGACUGCC [G7C U34G G36C C37U], 0.12.
GGCAGACCUCAACACAGCGCGGCAAAGUGGCUGUGGCCAGAAUGCC [G7C U20C U38C C42A]: the self-cleavage came to 0.03.
As for GGCAGAUCUCAACACAGCGUGGCGGCGUGGCUGUGGCUAGACUGCU [G7U A24G A25G A26C C46U], the figure is 0.03; as for GGCAGAUCUCCACACAACGUGGCAAAGUGGCUGUGGCUAGACUGCC [G7U A11C G17A], 0.03; as for GGCAGACCACAACACAGCUUGGCAAAGUGGCUUUGGCUAGACUGCC [G7C U9A G19U G33U], 0.06.
As for GGCAGAUCUCAUCACAGCGUGGCAAAAUGGCUGUGGCUAGUCUGCC [G7U A12U G27A A41U], the self-cleavage worked out at 0.08.
As for GGCAGAUCUCAACACCCCGUGGCAAAGUGGCUGUGGCUAGACUUCC [G7U A16C G17C G44U], the self-cleavage amounted to 0.06.
As for GGCAGAUCUCGGCACAGCGUGGCAUAGUGGAUGUGGCUAGACGGCC [G7U A11G A12G A25U C31A U43G], the figure is 0; as for GGCAGAUCUCAACACAGCGUGGCACAGUGACUGUGGCUAGGCUGCC [G7U A25C G30A A41G], 0.05.
Take GGCAGAUCUCAACACCGCGUGGCAAACUGCCUGUGUCUAGACUGCC [G7U A16C G27C G30C G36U]: the self-cleavage was determined as 0.1.
As to GGCAGAUCUCAACACCGCGUGGCAAUGUGGCUGUGGCUAGACUGCC [G7U A16C A26U], the self-cleavage turned out to be 0.02.
As for GGCAGACCUCAACACAGCGUGGCAAAGAGGCUGCGGCUAAACUUCC [G7C U28A U34C G40A G44U], the figure is 0; as for GGCAGACCUCAACACAGCGUGGCAAAGCGGAUGUGGCUAGACUGCC [G7C U28C C31A], 0.07.
For GGCAGACCGCAACACAGCGUAGCAAAGUGGAUGUGGCUCGAUUGUC [G7C U9G G21A C31A A39C C42U C45U], the self-cleavage was determined as 0.02.
As for GGCAGAUCUCAACGCAGCGUGGCAAAAUGAAUGAGGCGAGACUGAC [G7U A14G G27A G30A C31A U34A U38G C45A], the self-cleavage is 0.07.
For the variant GGCAGACCUCAACACAGCGUGGCAAAGUGGCCGUGGCUACACUGCC [G7C U32C G40C], the self-cleavage was 0.22.
Regarding GGCAGACCUCAACACAGCGUGGCAAAGAGGCAGUGGCUAGACUGCC [G7C U28A U32A], the self-cleavage is 0.05.
To GGCAGAUCUCAACACCGCGUGGCAAAGUGCCUGUGGCUAGACUGCC [G7U A16C G30C] belongs 0.06; to GGCAGAUCUCAACUCAGCGUGGCAAAGUGGCUGUGGCUCGACUGCC [G7U A14U A39C], 0.52; to GGCAGAUCUCAGCACAGCGUGGCUAAGUGGCUGUGGCUAGAGUGCC [G7U A12G A24U C42G], 0.01.
Regarding GGCAGAUCUCAGGACAGCGUGGCGAAGUGGCUGUGGCUAGACUGCC [G7U A12G C13G A24G], the self-cleavage was 0.05.
As for GGCAGACCUCAACACAGCGUGGCAAAGCGGCUGUGCCUAGACUGCC [G7C U28C G36C], the figure is 0.07; as for GGCAGACCUCAACACAGCGUGGCAAAGUGGCGGUGGCUAAACUGCC [G7C U32G G40A], 0.03; as for GGCAGAUCUCAACACUGCGUGGCAAAGUUGCUGUGGCUAGACUGCG [G7U A16U G29U C46G], 0.04.
In the case of GGCAGACCACAACACAGCGUGGCAAACUGGCUGUGGCUAGACUGCC [G7C U9A G27C], the self-cleavage came out at 0.11.
Turning to GGCAGAUCUCAUCACAGCGUGGCAAAGUGGCUGUGGCUAGUCUGCC [G7U A12U A41U], the self-cleavage was 0.1.
In the case of GGCAGACCCCAACACUGCGUGGCAAAGAGGCUGUGGCUGGACUCCU [G7C U9C A16U U28A A39G G44C C46U], the self-cleavage turned out to be 0.03.
Regarding GGCAGACCUCAACACAGCGUGGCAAAGAGGCUGAGUCUACACCGCC [G7C U28A U34A G36U G40C U43C], the self-cleavage amounted to 0.02.
GGCAGAUCUCGACACAGCGUGCCAAAGUGGCUGUGGCUAGACUGCC [G7U A11G G22C]: the self-cleavage was 0.01.
GGCAGAUCUCAACUCAGCGUGGCAAAGUGGUUGUAGCGAGACUGCC [G7U A14U C31U G35A U38G]: the self-cleavage came out at 0.13.
As for GGCAGAUCUCACCACAGCGUUGCAAAGUGACUGUGGCGAGACUGCC [G7U A12C G21U G30A U38G], the figure is 0.01; as for GGCAGAUCUCAACGCAGCGUGGCAAAGUGGGUGUGGCUAGACUGCC [G7U A14G C31G], 0.06.
For the variant GGCAGAUCUCAACACUGCGCGGCAAAGUGGCUGUGUCUAAACUGCA [G7U A16U U20C G36U G40A C46A], the self-cleavage was 0.02.

These data come from the RNAGym collection of RNA variant scans (doi:10.7554/elife.90254).
